Reference: PubChem BioAssay (EPA / NIEHS)
Where “and” joins values, the source holds several entries; their conditions need not be identical. Equal entries are not always repeated. For some assays here: This list holds what a sample rich in hits left over. Results filed as inconclusive are left out. Some compounds were tested as several samples or in several runs, with calls that do not always agree. This is a selection; strong and weak results do not stand in their true shares. Calls of active or inactive are those of the source. The calls were made as follows, unless noted: active = hit-call score of the fitted dose curve at least 0.9, where 1 is the maximum; inactive = score below 0.9.

What was measured:
[1] = molecular target: human Peroxisome Proliferator-activated Receptor alpha (PPARa), PPARA (gene 5465) (UniProt Q07869); experiment: ATG_PPARa_TRANS: Attagene TRANS-FACTORIAL HepG2 Assay for human Peroxisome Proliferator-activated Receptor alpha (PPARa) (AID 2283001; active = hit-call score of the fitted dose curve at least 0.9, where 1 is the maximum)
Chain of UniProt Q07869 (Q07869 whole entry, looked up, the tested form may be a part): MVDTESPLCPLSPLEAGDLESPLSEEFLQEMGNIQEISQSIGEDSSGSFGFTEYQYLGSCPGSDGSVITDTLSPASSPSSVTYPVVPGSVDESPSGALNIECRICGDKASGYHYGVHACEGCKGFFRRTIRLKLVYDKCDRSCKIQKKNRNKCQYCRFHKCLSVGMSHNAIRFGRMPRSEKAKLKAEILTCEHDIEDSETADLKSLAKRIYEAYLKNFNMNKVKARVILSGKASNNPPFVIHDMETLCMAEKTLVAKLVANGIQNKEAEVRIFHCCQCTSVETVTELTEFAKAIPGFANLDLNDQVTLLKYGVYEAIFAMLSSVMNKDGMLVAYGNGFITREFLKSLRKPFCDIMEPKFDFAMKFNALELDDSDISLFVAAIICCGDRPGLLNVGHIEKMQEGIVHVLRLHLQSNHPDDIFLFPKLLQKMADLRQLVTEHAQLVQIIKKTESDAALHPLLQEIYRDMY
In short: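 Transfected HepG2 cells treated with test chemical for 24 h. RNA isolated, reverse-transcribed with oligo(dT), PCR-amplified, FAM-labelled and HpaI-digested. Fragments sized by capillary electrophoresis; gain-of-signal fit relative to DMSO.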

[2] = molecular target: human Thyroid Receptor alpha (THRa1), THRA (gene 7067) (UniProt P10827); experiment: ATG_THRa1_TRANS: Attagene TRANS-FACTORIAL HepG2 Assay for human Thyroid Receptor alpha (THRa1) (AID 2283014; active = hit-call score of the fitted dose curve at least 0.9, where 1 is the maximum)
Chain of UniProt P10827 (P10827 whole entry, looked up, the tested form may be a part): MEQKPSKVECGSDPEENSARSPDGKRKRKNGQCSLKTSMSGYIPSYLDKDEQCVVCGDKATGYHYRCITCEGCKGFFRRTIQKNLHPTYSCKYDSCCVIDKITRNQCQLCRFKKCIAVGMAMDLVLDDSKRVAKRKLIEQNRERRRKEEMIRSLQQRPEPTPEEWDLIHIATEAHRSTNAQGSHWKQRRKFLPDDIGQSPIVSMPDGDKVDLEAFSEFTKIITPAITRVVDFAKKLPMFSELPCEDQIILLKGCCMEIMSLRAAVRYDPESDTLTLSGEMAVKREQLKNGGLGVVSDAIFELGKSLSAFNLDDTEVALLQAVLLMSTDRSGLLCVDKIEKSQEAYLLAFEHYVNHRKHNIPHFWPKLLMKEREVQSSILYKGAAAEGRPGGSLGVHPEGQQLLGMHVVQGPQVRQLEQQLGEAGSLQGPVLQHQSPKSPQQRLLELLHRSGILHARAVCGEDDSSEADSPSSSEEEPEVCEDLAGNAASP
In short: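 Transcripts from GAL4-UAS-driven reporters, measured after 24 h compound exposure by RT-PCR plus capillary electrophoresis of 6-FAM-labeled fragments, were fitted for gain of signal relative to DMSO. Cells: transiently transfected HepG2 expressing NR-Gal4 chimeras.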

[3] = read-out: E-selectin (Homo sapiens) (UniProt P16581); experiment: BSK_3C_Eselectin: BioMAP Diversity Plus: 3C Assay for Eselectin Biomarker Activity (AID 2283015); details: actives raise or lower the signal; primary human endothelial cells (HUVEC)
Chain of UniProt P16581 (P16581 whole entry, looked up): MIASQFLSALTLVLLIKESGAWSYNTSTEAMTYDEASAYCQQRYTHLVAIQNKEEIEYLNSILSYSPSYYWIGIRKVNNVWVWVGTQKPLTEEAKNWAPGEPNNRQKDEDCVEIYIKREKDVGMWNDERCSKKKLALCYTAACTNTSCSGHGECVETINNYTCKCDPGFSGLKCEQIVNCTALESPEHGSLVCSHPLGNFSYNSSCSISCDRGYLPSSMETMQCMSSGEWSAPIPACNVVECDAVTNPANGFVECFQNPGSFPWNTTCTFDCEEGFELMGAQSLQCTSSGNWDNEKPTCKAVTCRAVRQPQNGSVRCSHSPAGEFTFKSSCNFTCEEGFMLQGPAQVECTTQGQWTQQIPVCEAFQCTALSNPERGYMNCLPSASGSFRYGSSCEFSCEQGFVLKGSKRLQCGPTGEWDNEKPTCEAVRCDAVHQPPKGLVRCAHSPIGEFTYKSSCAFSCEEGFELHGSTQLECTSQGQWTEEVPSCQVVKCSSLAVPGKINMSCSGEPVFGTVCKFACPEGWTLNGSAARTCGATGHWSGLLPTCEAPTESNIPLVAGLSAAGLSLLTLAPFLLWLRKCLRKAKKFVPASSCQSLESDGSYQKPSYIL
In short: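 E-selectin ELISA readout, fitted bidirectionally relative to DMSO, taken 24 h post-dosing in HUVEC cultures of the 3C system. Overt cytotoxicity tracked with sulforhodamine B staining of parallel wells.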

[4] = read-out: Interleukin-1 alpha (IL1a), IL1A (gene 3552); experiment: BSK_BE3C_IL1a: BioMAP Diversity Plus: BE3C Assay for Interleukin-1 alpha (IL1a) Biomarker Activity (AID 2283016); details: actives raise or lower the signal; primary human bronchial epithelial cells
In short: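 Measured in human lung primary bronchial epithelial cells: IL-1a by ELISA at 24 h after dosing, with bidirectional fitting against DMSO.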

[5] = BSK_4H_SRB: Viability Assessment in the BioMAP Diversity Plus: 4H Assay (AID 2283027); details: primary human endothelial cells (HUVEC);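 also: cells exposed to compound for 24 h before staining; curves fitted both ways versus DMSO so AC50 may be loss or gain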
In short: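 Cytotoxicity read-out in primary human endothelial cells: after 24 h compound exposure, cells were TCA-fixed (10%), stained with 0.1% SRB and absorbance taken at 560 nm. Values fitted in both directions relative to DMSO.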

[6] = read-out: Vascular endothelial growth factor receptor 2 (Homo sapiens) (UniProt P35968); experiment: BSK_4H_VEGFRII: BioMAP Diversity Plus: 4H Assay for Vascular endothelial growth factor receptor 2 (VEGFR2) Biomarker Activity (AID 2283031); details: actives raise or lower the signal; primary human endothelial cells (HUVEC);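 also: cell-surface VEGFR2 protein level quantified by ELISA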
In short: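 Measured by ELISA after 24 h of compound treatment: VEGFR2 on primary human umbilical vein endothelial cells, fitted in both directions relative to DMSO. Parallel cultures received SRB staining (560 nm) for overt cytotoxicity.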

[7] = BSK_hDFCGF_SRB: Viability Assessment in the BioMAP Diversity Plus: hDFCGF Assay (AID 2283061); details: primary human foreskin fibroblasts;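 also: cells exposed to compound for 24 h before the read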
In short: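 Viability was read as total protein: after 10% TCA fixation, wells were stained with 0.1% sulforhodamine B and read at 560 nm. Primary human foreskin fibroblasts were dosed for 24 h, with bidirectional fitting versus DMSO.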

[8] = read-out: Monokine induced gamma interferon (MIG), CXCL9 (gene 4283); experiment: BSK_hDFCGF_MIG: BioMAP Diversity Plus: hDFCGF Assay for Monokine induced gamma interferon (MIG) Biomarker Activity (AID 2283063); details: actives raise or lower the signal; primary human foreskin fibroblasts
In short: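 Human primary foreskin fibroblasts in the hDFCGF system, exposed to test chemical for 24 h; MIG measured by ELISA. Bidirectional curve fitting against DMSO negative control as activity baseline.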

[9] = read-out: Plasminogen activator inhibitor-1 (PAI1), SERPINE1 (gene 5054); experiment: BSK_hDFCGF_PAI1: BioMAP Diversity Plus: hDFCGF Assay for Plasminogen activator inhibitor-1 (PAI1) Biomarker Activity (AID 2283066); details: actives raise or lower the signal; primary human foreskin fibroblasts
In short: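 Human skin fibroblast cultures receive chemical for 24 h before PAI-1 is measured by ELISA; signal changes are fitted bidirectionally against DMSO-treated wells.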

[10] = BSK_KF3CT_SRB: Viability Assessment in the BioMAP Diversity Plus: KF3CT Assay (AID 2283069); details: primary human keratinocytes with fibroblasts;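 also: total protein by sulforhodamine B staining as a cytotoxicity measure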
In short: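 Cytotoxicity was gauged by SRB staining (0.1% SRB, 10% TCA fixation, 560 nm) of parallel cultures at 24 h. The cells were primary human skin keratinocytes co-cultured with fibroblasts, and activity was fitted in both directions against DMSO.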

[11] = read-out: TIMP metallopeptidase inhibitor 2 (TIMP2), TIMP2 (gene 7077); experiment: BSK_KF3CT_TIMP2: BioMAP Diversity Plus: KF3CT Assay for TIMP metallopeptidase inhibitor 2 (TIMP2) Biomarker Activity (AID 2283071); details: actives raise or lower the signal; primary human keratinocytes with fibroblasts
In short: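 Measurements come from ELISA detection of TIMP-2 at 24 hours in a dosed human keratinocyte and foreskin fibroblast co-culture. DMSO serves as negative control and baseline.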

[12] = read-out: Interleukin-1 alpha (IL1a), IL1A (gene 3552); experiment: BSK_LPS_IL1a: BioMAP Diversity Plus: LPS Assay for Interleukin-1 alpha (IL1a) Biomarker Activity (AID 2283080); details: actives raise or lower the signal; primary human HUVEC with PBMC
In short: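 Readout is IL-1a level by ELISA, 24 h post-dose, fitted as gain or loss relative to DMSO. System: LPS-activated human primary co-culture of vascular endothelium and peripheral blood mononuclear cells, with parallel SRB total-protein cytotoxicity.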

[13] = read-out: Tissue Factor, F3 (gene 2152); experiment: BSK_LPS_TissueFactor: BioMAP Diversity Plus: LPS Assay for Tissue Factor Biomarker Activity (AID 2283084); details: actives raise or lower the signal; primary human HUVEC with PBMC
In short: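 Compound was added to an endothelial cell/PBMC co-culture, and after 24 h tissue factor (CD142) was read by ELISA. Gain or loss of signal was fitted against a DMSO baseline, and parallel SRB staining (560 nm) tracked overt cytotoxicity.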

[14] = read-out: CD69, CD69 (gene 969); experiment: BSK_SAg_CD69: BioMAP Diversity Plus: SAg Assay for CD69 Biomarker Activity (AID 2283089); details: actives raise or lower the signal; primary human HUVEC with PBMC;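 also: cell surface CD69 protein quantified by ELISA with fluorescence detection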
In short: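 Primary human vascular co-culture (umbilical vein endothelium with peripheral blood mononuclear cells) exposed to test chemical for 24 h. CD69 levels quantified by fluorescence ELISA; DMSO served as negative control for bidirectional fitting.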

[15] = BSK_SAg_Proliferation: Cell Proliferation Assessment in the BioMAP Diversity Plus: SAg Assay (AID 2283095); details: primary human HUVEC with PBMC;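 also: relative cell number as total protein by SRB absorbance in sub-confluent culture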
In short: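 A human primary co-culture of umbilical vein endothelium and blood mononuclear cells receives compound; relative cell number is quantified at 96 h by SRB staining and 560 nm absorbance, with DMSO-referenced bidirectional curve fitting.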

[16] = BSK_SAg_SRB: Viability Assessment in the BioMAP Diversity Plus: SAg Assay (AID 2283096); details: primary human HUVEC with PBMC;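 also: cells read one day after compound addition; hits may be either gain or loss of signal compared with DMSO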
In short: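 SRB absorbance at 560 nm served as the viability read-out. Cells (HUVEC plus peripheral blood mononuclear cells) were TCA-fixed and stained 24 h post-dosing; activity fitted in both directions against DMSO controls.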

[17] = molecular target: human CYP1A2, CYP1A2 (gene 1544) (UniProt P05177); experiment: NVS_ADME_hCYP1A2: NovaScreen (NVS) CYP450-related Enzyme Activity (ADME) Assay for human CYP1A2 (AID 2283102; active = hit-call score of the fitted dose curve at least 0.9, where 1 is the maximum)
Chain of UniProt P05177 (P05177 whole entry, looked up): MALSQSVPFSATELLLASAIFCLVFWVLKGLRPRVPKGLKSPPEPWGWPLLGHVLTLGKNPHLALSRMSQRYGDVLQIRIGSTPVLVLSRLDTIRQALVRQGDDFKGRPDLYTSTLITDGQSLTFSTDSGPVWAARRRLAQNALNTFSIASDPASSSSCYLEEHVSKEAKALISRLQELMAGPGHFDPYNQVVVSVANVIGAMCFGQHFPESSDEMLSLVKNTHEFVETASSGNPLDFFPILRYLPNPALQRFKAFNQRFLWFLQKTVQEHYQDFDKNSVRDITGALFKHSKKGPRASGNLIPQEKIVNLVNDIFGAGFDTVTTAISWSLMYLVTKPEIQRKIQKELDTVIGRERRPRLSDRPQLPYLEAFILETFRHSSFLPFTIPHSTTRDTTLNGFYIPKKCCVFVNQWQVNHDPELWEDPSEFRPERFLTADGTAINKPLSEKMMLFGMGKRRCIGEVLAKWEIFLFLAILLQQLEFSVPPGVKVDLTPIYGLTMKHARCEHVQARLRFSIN
In short: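 Enzyme activity of insect-cell-expressed human CYP1A2 measured by fluorescence 0.5 h after compound addition, relative to acetonitrile. Compounds first tested in duplicate at 10 uM, actives followed up in concentration series.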

[18] = molecular target: rat CYP2C13, Cyp2c13 (gene 171521) (UniProt P20814); experiment: NVS_ADME_rCYP2C13: NovaScreen (NVS) CYP450-related Enzyme Activity (ADME) Assay for rat CYP2C13 (AID 2283121; active = hit-call score of the fitted dose curve at least 0.9, where 1 is the maximum)
Chain of UniProt P20814 (P20814 whole entry, looked up): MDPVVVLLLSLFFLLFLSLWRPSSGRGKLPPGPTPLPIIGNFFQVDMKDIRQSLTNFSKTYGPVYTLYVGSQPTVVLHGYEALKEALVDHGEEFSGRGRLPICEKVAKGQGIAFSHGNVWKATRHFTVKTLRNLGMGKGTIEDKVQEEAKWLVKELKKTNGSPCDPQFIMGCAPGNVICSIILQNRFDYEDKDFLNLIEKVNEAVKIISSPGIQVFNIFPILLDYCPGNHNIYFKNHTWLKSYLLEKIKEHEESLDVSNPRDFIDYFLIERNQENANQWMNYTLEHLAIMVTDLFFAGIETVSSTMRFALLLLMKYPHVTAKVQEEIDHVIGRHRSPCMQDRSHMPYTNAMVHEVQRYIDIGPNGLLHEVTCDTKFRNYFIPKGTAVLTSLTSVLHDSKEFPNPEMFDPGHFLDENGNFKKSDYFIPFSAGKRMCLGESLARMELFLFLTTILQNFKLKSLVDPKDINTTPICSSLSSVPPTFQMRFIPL

[19] = molecular target: human Beta-secretase (BACE), BACE1 (gene 23621) (UniProt P56817); experiment: NVS_ENZ_hBACE: NovaScreen (NVS) Enzymatic Assay for human Beta-secretase (BACE) (AID 2283140; active = hit-call score of the fitted dose curve at least 0.9, where 1 is the maximum;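 also: hits are inhibitors that reduce fluorescent substrate signal versus DMSO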)
Chain of UniProt P56817 (P56817 whole entry, looked up): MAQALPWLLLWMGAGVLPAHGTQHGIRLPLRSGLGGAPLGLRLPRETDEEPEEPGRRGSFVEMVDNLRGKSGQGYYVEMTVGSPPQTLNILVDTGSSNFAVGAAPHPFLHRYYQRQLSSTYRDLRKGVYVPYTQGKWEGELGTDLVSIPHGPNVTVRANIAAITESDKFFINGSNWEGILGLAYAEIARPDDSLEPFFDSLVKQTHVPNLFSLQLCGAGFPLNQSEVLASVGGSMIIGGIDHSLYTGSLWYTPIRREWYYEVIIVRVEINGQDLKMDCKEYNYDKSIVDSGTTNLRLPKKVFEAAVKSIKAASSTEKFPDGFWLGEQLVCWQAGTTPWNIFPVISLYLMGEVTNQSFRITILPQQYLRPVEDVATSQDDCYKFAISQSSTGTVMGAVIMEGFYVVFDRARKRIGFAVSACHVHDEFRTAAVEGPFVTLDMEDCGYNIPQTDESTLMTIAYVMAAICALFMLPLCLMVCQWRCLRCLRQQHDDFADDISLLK

[20] = molecular target: human Serotonin, 5-Hydroxytryptamine Receptor 7 (5HT7), HTR7 (gene 3363) (UniProt P34969); experiment: NVS_GPCR_h5HT7: NovaScreen (NVS) G Protein-Coupled Receptor Assay for human Serotonin, 5-Hydroxytryptamine Receptor 7 (5HT7) (AID 2283255; active = hit-call score of the fitted dose curve at least 0.9, where 1 is the maximum;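 also: hits reduce specific radioligand binding relative to DMSO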)
Chain of UniProt P34969 (P34969 whole entry, looked up): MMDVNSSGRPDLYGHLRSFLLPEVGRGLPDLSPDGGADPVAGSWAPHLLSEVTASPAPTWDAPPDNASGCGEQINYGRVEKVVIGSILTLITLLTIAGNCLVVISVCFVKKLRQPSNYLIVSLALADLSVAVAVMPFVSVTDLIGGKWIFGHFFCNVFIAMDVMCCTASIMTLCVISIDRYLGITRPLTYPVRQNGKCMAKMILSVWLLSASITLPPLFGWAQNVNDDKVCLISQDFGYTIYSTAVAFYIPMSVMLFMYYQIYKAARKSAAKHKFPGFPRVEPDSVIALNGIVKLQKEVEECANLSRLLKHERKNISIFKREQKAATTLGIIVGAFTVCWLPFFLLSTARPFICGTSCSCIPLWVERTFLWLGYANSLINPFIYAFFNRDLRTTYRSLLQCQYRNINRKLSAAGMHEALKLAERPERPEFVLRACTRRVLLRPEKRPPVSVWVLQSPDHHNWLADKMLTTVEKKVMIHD
In short: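 Filter-bound radioactivity counted after 1 h, with loss of specific radioligand binding fitted against DMSO. Membrane protein came from CHO cells expressing human 5HT7. Chemicals were tested first at 25 uM in duplicate, then in concentration series if active.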

[21] = system: NCBI gene 100848466; experiment: NVS_NR_bPR: NovaScreen (NVS) Nuclear Receptor Binding Assay for bovine Progextron Receptor (PR) (AID 2283343; active = hit-call score of the fitted dose curve at least 0.9, where 1 is the maximum;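 also: actives lower bound radioligand signal below DMSO meaning displacement of the label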)
[22] = molecular target: Bile acid receptor (Homo sapiens) (UniProt Q96RI1); experiment: NVS_NR_hFXR_Antagonist: NovaScreen (NVS) Nuclear Receptor Binding Assay for human Farnesoid X Receptor Antagonism (FXR) (AID 2283350; active = hit-call score of the fitted dose curve at least 0.9, where 1 is the maximum)
Chain of UniProt Q96RI1 (Q96RI1 whole entry, looked up): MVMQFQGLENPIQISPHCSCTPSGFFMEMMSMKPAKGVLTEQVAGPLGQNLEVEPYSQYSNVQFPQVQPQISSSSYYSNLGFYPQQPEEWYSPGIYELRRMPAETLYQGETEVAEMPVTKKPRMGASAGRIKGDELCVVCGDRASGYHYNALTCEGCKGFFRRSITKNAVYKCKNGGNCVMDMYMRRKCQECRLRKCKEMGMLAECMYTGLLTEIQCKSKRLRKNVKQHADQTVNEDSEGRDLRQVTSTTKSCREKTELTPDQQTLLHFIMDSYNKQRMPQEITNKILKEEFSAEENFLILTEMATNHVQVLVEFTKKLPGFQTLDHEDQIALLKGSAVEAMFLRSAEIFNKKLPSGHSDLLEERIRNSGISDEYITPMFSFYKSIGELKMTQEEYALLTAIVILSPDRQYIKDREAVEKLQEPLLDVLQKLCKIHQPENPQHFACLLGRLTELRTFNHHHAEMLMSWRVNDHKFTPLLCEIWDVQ
In short: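 Antagonist-format time-resolved FRET binding assay with extracted human receptor protein, read 1 hour after compound addition. Compounds first screened at 25 uM in duplicate, then actives tested in concentration series, with loss of signal relative to DMSO.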

[23] = molecular target: Retinoic acid receptor RXR-alpha (Homo sapiens) (UniProt P19793); experiment: OT_NURR1_NURR1RXRa_1440: Odyssey Thera (OT) 24-hour HEK293T Protein Complementation Assay for Nurr1/retinoid X receptor (RXR) (AID 2283386; active = hit-call score of the fitted dose curve at least 0.9, where 1 is the maximum)
Chain of UniProt P19793 (P19793 whole entry, looked up, the tested form may be a part): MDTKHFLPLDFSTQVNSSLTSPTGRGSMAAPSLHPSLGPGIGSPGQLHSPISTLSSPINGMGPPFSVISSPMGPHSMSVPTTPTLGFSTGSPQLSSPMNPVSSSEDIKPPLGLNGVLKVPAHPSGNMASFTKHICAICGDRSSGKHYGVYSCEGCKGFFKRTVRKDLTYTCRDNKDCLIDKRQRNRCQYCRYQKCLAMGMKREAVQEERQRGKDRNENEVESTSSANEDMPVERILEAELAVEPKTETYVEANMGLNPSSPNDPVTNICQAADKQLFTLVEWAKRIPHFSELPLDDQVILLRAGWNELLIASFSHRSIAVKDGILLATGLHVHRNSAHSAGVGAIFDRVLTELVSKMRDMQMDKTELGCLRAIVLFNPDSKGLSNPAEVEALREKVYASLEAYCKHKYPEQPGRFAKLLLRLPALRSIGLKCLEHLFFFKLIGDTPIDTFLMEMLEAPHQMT
In short: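 Cell-based binding reporter: HEK293T cells, 24 h exposure, fluorescence-detected fragment complementation, DMSO as baseline.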

[24] = CEETOX_H295R_CORTISOL: CeeTox H295R High-throughput Steroidogenesis Assay for Cortisol (AID 2283438); details: actives raise or lower the signal;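 also: cortisol secreted into medium quantified by LC-MS/MS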
In short: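 Steroidogenesis in H295R, per modified OECD 456: 48 h forskolin (10 uM), then 48 h exposure, 0.1% DMSO. Cortisol by extraction and tandem MS; viability by MTT (570/650 nm); cytotoxic chemicals diluted and re-tested.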

[25] = ArunA_NOG_NeuriteLength: ArunA Biomedical's Neurite Outgrowth (NOG) Assay for Neurite Length (AID 2283757; active = hit-call score of the fitted dose curve at least 0.9, where 1 is the maximum)
In short: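 Total neurite length per neuron, from traced βIII-tubulin-labelled processes longer than 10 um on viable Hoechst-gated cells, was scored as decrease from DMSO. Cells were hESC (H9)-derived neurons given 48 h chemical exposure immediately after seeding.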

[26] = system: zebrafish Estrogen Receptor (ESR2B), gene 317733; experiment: ATG_zfER2b_XSP1: Attagene TRANS-FACTORIAL Multi-Species (XSP1) HepG2 Assay for zebrafish Estrogen Receptor (ESR2B) (AID 2283773; active = hit-call score of the fitted dose curve at least 0.9, where 1 is the maximum)
In short: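 Medium contained 3 nM 6-alpha-fluorotestosterone. Reporter mRNA induction by exogenous zebrafish ER2b-Gal4 chimera was read 24 h post-dose in transiently transfected HepG2 cells, using RT-PCR, fluorescent labelling, HpaI digestion and capillary electrophoresis.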

[27] = system: Sodium/Iodide Symporter (NIS), SLC5A5 (gene 6528); experiment: CPHEA_Stoker_NIS_Inhibition_RAIU: CPHEA's Radioactive Iodide Uptake (RAIU) Assay for Sodium/Iodide Symporter (NIS) Inhibition, Stoker and Laws Labs (AID 2283841; active = hit-call score of the fitted dose curve at least 0.9, where 1 is the maximum)
In short: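 HEK293T cells stably expressing human NIS (hNIS-HEK293T-EPA) were exposed to test chemicals at 0.001–100uM (0.5% final DMSO) with 125I at a final 329pM in HBSS/10mM HEPES pH 7.4. After 2 hours at room temperature and ice-cold washes, intracellular 125I was counted as CPM and normalized to DMSO wells.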

[28] = CCTE_Simmons_MITO_max_resp_rate: CCTE's HepG2 Seahorse XF Respirometric Screening Assay at Maximal Respiratory State [uncoupled], Simmons Lab (AID 2284002); details: actives raise or lower the signal
In short: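 Maximal (FCCP-uncoupled) respiration rate in HepG2, from Seahorse kinetic OCR over 72 min at 6 min cycles. Compounds at 125 nM–100 uM final, 7 points, three biological replicates; both directions fit relative to DMSO.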

[29] = system: IYD (gene 389434); experiment: CCTE_GLTED_hIYD: CCTE's human Iodotyrosine Deiodinase (xIYD) Inhibition Assay, Great Lakes Toxicology and Ecology Division (GLTED) Lab (AID 2284317; active = hit-call score of the fitted dose curve at least 0.9, where 1 is the maximum;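 also: cell-free human IYD enzyme made in baculovirus insect cells; iodide freed from monoiodotyrosine measured by cerium arsenite color change at 420 nm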)
In short: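 Iodide liberated from monoiodotyrosine by baculovirus-expressed human IYD over 3 h was determined colorimetrically (Sandell-Kolthoff, 420 nm) after Dowex separation; inhibition is loss of signal versus DMSO.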

Measured: AC50

Oc1cc(Cl)ccc1Oc1ccc(Cl)cc1Cl
active: [3] 15.7 µM | [4] 33.8 µM | [5] 14 µM | [6] 5.24 µM | [7] 10.6 µM | [8] 11.7 µM | [9] 11.9 µM | [10] 10.5 µM | [11] 28.4 µM | [12] 13.3 µM | [13] 15 µM | [14] 14.8 µM | [15] 8.84 µM | [16] 15 µM | [18] 14.7 µM | [19] 20.7 µM | [21] 20 µM | [23] 11.8 µM | [26] 13.8 µM | [27] 8.69 µM and 10.4 µM | [29] 42.9 µM
inactive: [1] | [2] | [17] | [20] | [22] | [24] | [25] | [28]
